# Source: the BET-seq Pho4 binding data (Le et al. 2018)
# The other results are listed elsewhere or left out. The energies were worked out here from pooled read counts, against the library average; single values are noisy.
# Target: T1, Pho4 (S. cerevisiae) (UniProt P07270)
# T1 sequence: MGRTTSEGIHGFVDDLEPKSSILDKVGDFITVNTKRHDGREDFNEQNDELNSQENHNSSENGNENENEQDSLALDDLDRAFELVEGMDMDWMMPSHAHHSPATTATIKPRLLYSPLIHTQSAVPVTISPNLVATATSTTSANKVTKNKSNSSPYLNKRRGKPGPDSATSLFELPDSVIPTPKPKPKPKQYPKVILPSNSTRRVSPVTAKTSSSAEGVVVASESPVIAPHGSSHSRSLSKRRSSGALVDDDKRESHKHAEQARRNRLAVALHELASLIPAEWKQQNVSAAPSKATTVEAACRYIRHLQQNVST
# Experiment: relative binding free energy (BET-seq); higher = weaker binding
# Settings: reference: library average
row,Sequence,relative binding free energy [kJ/mol]
1,TTTTGCACGTGTGCAT,0.209
2,TGTCTCACGTGTTAAA,1.34
3,AGTAGCACGTGGGCTG,-0.669
4,TATGACACGTGGGCTT,-0.837
5,GTATGCACGTGAGCGT,0.418
6,TCTGGCACGTGGGTGG,-0.502
7,TCTATCACGTGAGGGT,1.13
8,TGGGCCACGTGAGGGA,1
9,TTTGACACGTGTGCAT,0.544
10,AGATTCACGTGTAGGC,1.09
11,GTAGTCACGTGAGGAC,1.09
12,TGTGTCACGTGACTGG,1.42
13,GTAGTCACGTGCATGT,0.544
14,ACCGTCACGTGATGGG,1.05
15,AGGAACACGTGTGGGC,0.669
16,ATTATCACGTGTATTT,0.167
17,GAGAGCACGTGGGGTT,-0.0837
18,CGAATCACGTGTGGAG,1.13
19,ATGAGCACGTGTTGCT,-0.879
20,ATTCGCACGTGGATTT,0.335
21,TTCTGCACGTGGTTTG,-0.502
22,GGCATCACGTGAGGGG,1.42
23,TGTGACACGTGCAGAG,0.0837

row,Sequence,relative binding free energy [kJ/mol]
1,GAGGTCACGTGGTTAA,0.544
2,GATGGCACGTGGCTTA,-0.335
3,CGTAGCACGTGCTGTT,-0.377
4,ATGGTCACGTGCTTAT,0.502
5,ATATTCACGTGATGGG,0.962
6,CGTGGCACGTGGTAGC,-0.962
7,TTACTCACGTGATGAT,1.84
8,ACTTGCACGTGTAATG,0.293
9,GGACGCACGTGAGTTG,0.251
10,AATAGCACGTGGGGTG,-1.13
11,TGTGTCACGTGATGCG,0.586
12,TTAAACACGTGGGTAA,-0.92
13,TTCAACACGTGTAGTG,0.0837
14,GCGTACACGTGTGTTA,0.0418
15,GCTTGCACGTGAGTTA,1.05
16,GGGGGCACGTGTTCCT,-0.377
17,GGTTTCACGTGAATTT,1.84
18,CTGGGCACGTGAGAGC,0.418
19,TATGGCACGTGAACGT,-0.209
20,CGGGACACGTGGATGG,-0.293
21,GCGATCACGTGGATGT,1.21
22,GTGATCACGTGGAATT,1.72
23,TTTTGCACGTGGAAGA,0.711

row,Sequence,relative binding free energy [kJ/mol]
1,GGTAGCACGTGTGGAG,0.126
2,TGGCACACGTGTAGTA,0.209
3,AGGGGCACGTGAGCCG,0.0837
4,TGCTGCACGTGGGTGG,-0.628
5,GTGCGCACGTGATTGG,0.0837
6,TGCTTCACGTGTTAAA,1.34
7,GGCAGCACGTGCGTGG,-0.377
8,TAGGGCACGTGGGTAC,-1.13
9,AGCGCCACGTGTTGGT,-0.0418
10,GGGGCCACGTGTGAAG,0.711
11,CTAGGCACGTGTGGCT,-0.0418
12,GTTATCACGTGTCATT,0.669
13,CTTATCACGTGGGAGT,0.293
14,TAAGTCACGTGGTTTG,0.251
15,ATGCGCACGTGTTGTG,-0.879
16,GACGTCACGTGGGGAT,0.628
17,TTAGACACGTGTGGCC,0.962
18,CGGGTCACGTGTGTAA,0.879
19,AAAGGCACGTGCGGTG,-0.92
20,CTTGTCACGTGATATG,0.209
21,GTGTACACGTGGGACG,-0.126
22,CATGGCACGTGTGGTT,-0.753
23,TGGTGCACGTGGCGGC,-0.335

row,Sequence,relative binding free energy [kJ/mol]
1,TGGGTCACGTGTCCTT,0.167
2,TCTAGCACGTGGGGCG,-0.544
3,GGTGGCACGTGTGTTA,0.293
4,CTTTTCACGTGGGGAT,0.753
5,CTAGGCACGTGAGGTT,0.167
6,TAGGGCACGTGTCTGG,-0.418
7,TTTGTCACGTGGAGTC,0.377
8,TGGTGCACGTGGTACT,-0.126
9,GAGTTCACGTGTTAGT,1.51
10,CATGGCACGTGAGGAA,0.628
11,TGTGCCACGTGTGCTT,-0.502
12,TACGACACGTGCGGGT,-0.293
13,AGTAGCACGTGTTCTT,-0.502
14,GGTAGCACGTGAACGT,1.13
15,AATTGCACGTGTGACG,0.126
16,ATGTCCACGTGGGATT,0.126
17,TTTAGCACGTGCTGCG,-0.251
18,AAGGGCACGTGGACGT,-1
19,TGGCTCACGTGTCGTG,0.418
20,GGGTTCACGTGTATGG,1.8
21,ACTTGCACGTGGCTTG,0
22,TAGTGCACGTGAATAA,0.795
23,CGGGTCACGTGGGCAG,-0.0418

row,Sequence,relative binding free energy [kJ/mol]
1,GATTTCACGTGGTGTA,1.46
2,TAAGACACGTGGGATA,-0.293
3,GGTGTCACGTGTGTCC,0.879
4,CGTGACACGTGTAGTT,0.0837
5,TTTAGCACGTGACATA,0.46
6,ATATGCACGTGACGGG,0.209
7,AGTCTCACGTGGAGGG,1.09
8,TATTCCACGTGTTGAA,0.418
9,TTGGACACGTGTGATT,0.795
10,ATTGGCACGTGTAATA,0
11,GGTTACACGTGAGAGT,1.59
12,TGGGCCACGTGAGTAA,0.92
13,TTAAACACGTGTATTT,0.0418
14,GGGTTCACGTGGTTGT,1.51
15,GTGTACACGTGTAGTC,0.126
16,GCAGTCACGTGGAGGT,-0.251
17,TATAGCACGTGATGGG,0.418
18,AGTTTCACGTGTTACG,1.17
19,TATAGCACGTGATACG,0.293
20,CAGTGCACGTGGGTTT,-0.502
21,AAGGTCACGTGGCGGG,0.0837
22,CAGCGCACGTGGGGGT,-1.17
23,CTAGGCACGTGTTTAT,-1.05
